Experimental findings from the supplement of paper PMC10037445 are described below.

The test system of assay [1] is RAW-Dual. Nature of the assay: NF-kB SEAP reporter activity, fold change vs agonist alone; cytotoxicity flag (confluency mask): not cytotoxic; higher = enhanced NF-kB activity. In short, it runs like this: (§1)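 Supernatant from RAW-Dual macrophages was read after 20 hours for IRF by QuantiLuc luminescence and for NF-κB by QuantiBlue absorbance at 620 nm. The cells (50,000 cells/well in DMEM, 384-well plates, 37 °C, 5% CO2) had received 50 nL of library stock by pin tool and, 1 h later, a PRR agonist. Reporter activity is expressed relative to agonist-alone wells as fold change, and wells were flagged cytotoxic if IncuCyte confluency was under 70% of agonist controls in both mask sets.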

Assay [2] has as its system RAW-Dual. Nature of the assay: NF-kB SEAP reporter activity, fold change vs agonist alone; higher = enhanced NF-kB activity. In short, it runs like this: as §1
Assay [3] deals with RAW-Dual. Nature of the assay: NF-kB SEAP reporter activity, fold change vs agonist alone; cytotoxicity flag (confluency mask): cytotoxic (confluency <70% of control); higher = enhanced NF-kB activity. In short, it runs like this: as §1
Where [4] appears, read: agonist: ODN 1826 (TLR9) 0.5 ug/mL.
Where [5] appears, read: agonist: Pam2CSK4 (TLR2/6) 0.1 ug/mL.
[6] abbreviates: agonist: Pam3CSK4 (TLR2/1) 0.1 ug/mL.
Setting [7] is: library stock concentration (final ~1000-fold dilution): 10 mM, cytotoxicity flag (confluency mask): cytotoxic (confluency <70% of control), agonist: Imiquimod (TLR7) […].
[8] abbreviates: library stock concentration (final ~1000-fold dilution): 10 mM, cytotoxicity flag (confluency mask): cytotoxic (confluency <70% of control), agonist: MPLA (TLR4) […].
Setting [9] is: library stock concentration (final ~1000-fold dilution): 10 mM, cytotoxicity flag (confluency mask): not cytotoxic, agonist: Imiquimod (TLR7) […].
The mark [10] stands for this setting: library stock concentration (final ~1000-fold dilution): 10 mM, cytotoxicity flag (confluency mask): not cytotoxic, agonist: MPLA (TLR4) […].

Where “and” joins values, the source holds several entries; their conditions need not be identical. Identical values can stand only once. ± gives the standard deviation of the averaged measurements. Whole data set: some 2,900 compounds, median “NF-kB SEAP reporter activity, fold change vs agonist alone” near 0.99, cut for the highest 2% near 2.6. The list shows a part of the results.

With `Br.Br.Br.Br.Br.Br.c1ccc(CNCc2ccc(CN3CCCNCCNCCCNCC3)cc2)nc1` (library stock concentration (final ~1000-fold dilution): 10 mM water), the “NF-kB SEAP reporter activity” value with RAW-Dual [1] (agonist: LPS (TLR4) 0.1 ug/mL) is 1.02; in the assay on RAW-Dual [1] (setting [4]), 0.926; with RAW-Dual [1] (setting [5]), 1.05; in the assay with RAW-Dual [1] (setting [6]), 1.15.

On to `Br.Br.Br.Br.Br.Br.c1ccc(CNCc2ccc(CN3CCCNCCNCCCNCC3)cc2)nc1`, for which the “NF-kB SEAP reporter activity” value in the assay on RAW-Dual [2] (library stock concentration (final ~1000-fold dilution): 10 mM water, cytotoxicity flag (confluency mask): not cytotoxic, agonist: Imiquimod (TLR7) […]) was 0.848; with RAW-Dual [2] (library stock concentration (final ~1000-fold dilution): 10 mM water, cytotoxicity flag (confluency mask): not cytotoxic, agonist: MPLA (TLR4) […]), 0.806.

As to `Cc1ccc(NCCCc2ccccc2)c(N)c1` (library stock concentration (final ~1000-fold dilution): 10 mM), the “NF-kB SEAP reporter activity” value with RAW-Dual [1] (agonist: LPS (TLR4) 0.1 ug/mL) was determined as 0.469; with RAW-Dual [1] (setting [4]) it was 0.541; with RAW-Dual [1] (setting [5]) it was 0.308; in the assay with RAW-Dual [1] (setting [6]), 0.248; in the assay with RAW-Dual [3] (agonist: LPS (TLR4) 0.1 ug/mL) it was 0.665 ± 0.2; in the assay on RAW-Dual [3] (setting [4]), 0.533 ± 0.15. Also, the “NF-kB SEAP reporter activity” value was 0.399 ± 0.13 in the assay with RAW-Dual [3] (setting [5]) and 0.432 ± 0.1 in the assay on RAW-Dual [3] (setting [6]).

For `Cc1ccc(NCCCc2ccccc2)c(N)c1`, the “NF-kB SEAP reporter activity” value came out at 1.08 ± 0.13 in the assay on RAW-Dual [2] (setting [7]), 0.908 ± 0.33 in the assay with RAW-Dual [2] (setting [8]), 1.02 in the assay on RAW-Dual [2] (setting [9]) and 0.694 in the assay with RAW-Dual [2] (setting [10]).

Regarding `C#Cc1cccc(Nc2ncnc3cc4c(cc23)OCCOCCOCCO4)c1` (library stock concentration (final ~1000-fold dilution): 10 mM), the “NF-kB SEAP reporter activity” value in the assay with RAW-Dual [1] (agonist: LPS (TLR4) 0.1 ug/mL) is 1.8; in the assay with RAW-Dual [1] (setting [4]) it was 0.972; with RAW-Dual [1] (setting [5]) it was 1.16; in the assay on RAW-Dual [1] (setting [6]), 1.44.

On to `C#Cc1cccc(Nc2ncnc3cc4c(cc23)OCCOCCOCCO4)c1`, for which the “NF-kB SEAP reporter activity” value in the assay on RAW-Dual [2] (setting [9]) turned out to be 1.06; in the assay on RAW-Dual [2] (setting [10]), 1.53.

Take `C=CC(=O)Nc1cc(Nc2nccc(-c3cn(C)c4ccccc34)n2)c(OC)cc1N(C)CCN(C)C` (library stock concentration (final ~1000-fold dilution): 10 mM): the “NF-kB SEAP reporter activity” value with RAW-Dual [3] (agonist: LPS (TLR4) 0.1 ug/mL) amounted to 0.691; in the assay with RAW-Dual [3] (setting [4]), 0.19; with RAW-Dual [3] (setting [5]) it was 0.387; in the assay with RAW-Dual [3] (setting [6]), 0.266.

Take `C=CC(=O)Nc1cc(Nc2nccc(-c3cn(C)c4ccccc34)n2)c(OC)cc1N(C)CCN(C)C`: the “NF-kB SEAP reporter activity” value in the assay on RAW-Dual [2] (setting [7]) was found to be 0.154; in the assay on RAW-Dual [2] (setting [8]), 0.23.

For `CC1=C(C(=O)Nc2ccc3[nH]ncc3c2)C(c2ccc(F)cc2)NC(=O)N1` (configuration not stated), the “NF-kB SEAP reporter activity” value was determined as 1.12 with RAW-Dual [2] (setting [9]) and 0.995 in the assay with RAW-Dual [2] (setting [10]).

On to `CC1=C(C(=O)Nc2ccc3[nH]ncc3c2)C(c2ccc(F)cc2)NC(=O)N1` (configuration not stated) (library stock concentration (final ~1000-fold dilution): 10 mM), for which the “NF-kB SEAP reporter activity” value was determined as 0.785 in the assay with RAW-Dual [1] (agonist: LPS (TLR4) 0.1 ug/mL), 1.29 in the assay on RAW-Dual [1] (setting [4]), 1.12 in the assay on RAW-Dual [1] (setting [5]) and 1.56 in the assay with RAW-Dual [1] (setting [6]).

As for `COc1cc2c(c(OC)c1OC)-c1c(cc3c(c1OC)OCO3)CC(C)C(C)C2` (configuration not stated) (library stock concentration (final ~1000-fold dilution): 10 mM), the “NF-kB SEAP reporter activity” value was 1.31 and 0.712 in the assay on RAW-Dual [1] (agonist: LPS (TLR4) 0.1 ug/mL); 0.577 and 0.583 with RAW-Dual [1] (setting [4]); 1 and 0.433 with RAW-Dual [1] (setting [5]); 0.682 and 0.522 with RAW-Dual [1] (setting [6]).

`CCOC(=O)c1cnc2ccc(-c3cncc(NS(=O)(=O)c4ccccc4)c3)cn12` (library stock concentration (final ~1000-fold dilution): 10 mM): the “NF-kB SEAP reporter activity” value was 7.43 with RAW-Dual [3] (agonist: LPS (TLR4) 0.1 ug/mL), 2.4 with RAW-Dual [3] (setting [4]), 1.68 in the assay on RAW-Dual [3] (setting [5]) and 3.96 in the assay with RAW-Dual [3] (setting [6]).

Take `CCOC(=O)c1cnc2ccc(-c3cncc(NS(=O)(=O)c4ccccc4)c3)cn12`: the “NF-kB SEAP reporter activity” value was determined as 1.31 in the assay with RAW-Dual [2] (setting [7]) and 2.94 in the assay on RAW-Dual [2] (setting [8]).

Turning to `C#CCC(c1nc2cc(Cl)ccc2c(=O)n1Nc1ccccc1)N(CCCN)C(=O)c1cccc(Cl)c1F` (configuration not stated), the entries for the “NF-kB SEAP reporter activity” value in the assay with RAW-Dual [2] (setting [7]) and with RAW-Dual [2] (setting [8]) were 0.144 and 0.222, respectively.

For `C#CCC(c1nc2cc(Cl)ccc2c(=O)n1Nc1ccccc1)N(CCCN)C(=O)c1cccc(Cl)c1F` (configuration not stated) (library stock concentration (final ~1000-fold dilution): 10 mM), the “NF-kB SEAP reporter activity” value with RAW-Dual [3] (agonist: LPS (TLR4) 0.1 ug/mL) is 0.212; in the assay with RAW-Dual [3] (setting [4]), 0.181; with RAW-Dual [3] (setting [5]), 0.0665; with RAW-Dual [3] (setting [6]) it was 0.135.
